Assays:
[1] = biological target: 5-10 (E490K) ZFP/FokI fusion protein

Protein	DNA cleavage (in vitro, 5-8 not present)	DNA cleavage (in vitro, labeled ~400 bp substrate) [1]
5-10 ZFP/FokI fusion protein (wild-type FokI cleavage half-domain) (protein) MAPKKKRKVGIHGVPAAMAERPFQCRICMRNFSRSDSLSRHIRTHTGEKPFACDICGRKFADSSNRKTHTKIHTGGGGSQKPFQCRICMRNFSRSDSLSVHIRTHTGEKPFACDICGRKFADRSNRITHTKIHLRQKDAARGSQLVKSELEEKKSELRHKLKYVPHEYIELIEIARNSTQDRILEMKVMEFFMKVYGYRGKHLGGSRKPDGAIYTVGSPIDYGVIVDTKAYSGGYNLPIGQADEMQRYVEENQTRNKHINPNEWWKVYPSSVTEFKFLFVSGHFKGNYKAQLTRLNHITNCNGAVLSVEELLIGGEMIKAGTLTLEEVRRKFNNGEINF	Non-specific	
5-8 ZFP/FokI fusion protein (wild-type FokI cleavage half-domain) (protein) MAPKKKRKVGIHGVPAAMAERPFQCRICMRNFSRSDNLSEHIRTHTGEKPFACDICGRKFARNAHRINHTKIHTGSQKPFQCRICMRNFSRSDTLSEHIRTHTGEKPFACDICGRKFAARSTRTTHTKIHLRQKDAARGSQLVKSELEEKKSELRHKLKYVPHEYIELIEIARNSTQDRILEMKVMEFFMKVYGYRGKHLGGSRKPDGAIYTVGSPIDYGVIVDTKAYSGGYNLPIGQADEMQRYVEENQTRNKHINPNEWWKVYPSSVTEFKFLFVSGHFKGNYKAQLTRLNHITNCNGAVLSVEELLIGGEMIKAGTLTLEEVRRKFNNGEINF		Specific

From patent publication US20130244332
